These results are taken from the BET-seq Pho4 binding data (Le et al. 2018).

Some of the results follow. Values were computed here from the reads of four pooled replicates and scatter widely.

For the assay, the target named is T1, Pho4 (S. cerevisiae) (UniProt P07270).
T1 sequence: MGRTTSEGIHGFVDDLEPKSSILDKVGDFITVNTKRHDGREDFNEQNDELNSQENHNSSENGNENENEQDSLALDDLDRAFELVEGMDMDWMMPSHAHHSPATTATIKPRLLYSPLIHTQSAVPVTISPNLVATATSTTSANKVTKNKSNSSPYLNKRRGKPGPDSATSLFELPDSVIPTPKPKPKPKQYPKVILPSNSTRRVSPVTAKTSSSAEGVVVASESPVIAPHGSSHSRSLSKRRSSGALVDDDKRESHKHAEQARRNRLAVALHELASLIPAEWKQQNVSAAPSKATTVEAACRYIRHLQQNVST
The experiment in a line: relative binding free energy (BET-seq); higher = weaker binding. Particulars: reference: library average.
For the sequence TAGTACACGTGAAGGT, the “relative binding free energy” value came out at 0.26 kcal/mol.

As for TCGGTCACGTGTCGTT, the “relative binding free energy” value amounted to 0.01 kcal/mol.

Consider TGTGACACGTGTGTCT, for which the “relative binding free energy” value was found to be 0.07 kcal/mol. Next, GGGCTCACGTGTGTGT: 0.31 kcal/mol; CTGGACACGTGTATGG: 0.17 kcal/mol. As for TTATCCACGTGGTGTA, the figure is 0.01 kcal/mol; as for TTGTACACGTGTATAA, 0.08 kcal/mol; as for GTAATCACGTGGAAGT, 0.22 kcal/mol.

As for TTAGCCACGTGGTTAG, the “relative binding free energy” value was -0.1 kcal/mol. Regarding TGTTTCACGTGCGGCC, the “relative binding free energy” value came out at 0.32 kcal/mol.

As to TTATCCACGTGTTTAA, the “relative binding free energy” value is -0.02 kcal/mol.

On to TCTATCACGTGGTTTG, for which the “relative binding free energy” value turned out to be 0.2 kcal/mol. Consider TTAAGCACGTGAAGGT, for which the “relative binding free energy” value came out at 0.12 kcal/mol.

Take ATTTGCACGTGATTTT: the “relative binding free energy” value is 0.14 kcal/mol. Regarding TGTAGCACGTGCAAGG, the “relative binding free energy” value was -0.03 kcal/mol. Next, ATGTACACGTGATTGA: 0.16 kcal/mol; GTTGTCACGTGAGTAA: 0.31 kcal/mol; GGAATCACGTGGTTTG: 0.17 kcal/mol. For the sequence AGTATCACGTGGTTTA, the “relative binding free energy” value came out at 0 kcal/mol. With CGTAGCACGTGATGGG, the “relative binding free energy” value is -0.08 kcal/mol. In the case of TTGTGCACGTGGGGTC, the “relative binding free energy” value was -0.09 kcal/mol. Next, TTGTTCACGTGTCATA: 0.3 kcal/mol; TGCGGCACGTGTGATA: -0.04 kcal/mol. In the case of TGAAACACGTGGGTGG, the “relative binding free energy” value is -0.24 kcal/mol. On to TTGATCACGTGGCTTA, for which the “relative binding free energy” value worked out at 0.12 kcal/mol.

As to TCTGGCACGTGGAGGA, the “relative binding free energy” value was -0.1 kcal/mol. Regarding GTTGTCACGTGGAGGA, the “relative binding free energy” value was found to be 0.11 kcal/mol. For the sequence AGGTTCACGTGGCGGC, the “relative binding free energy” value is 0.04 kcal/mol. With TGTTACACGTGTATGA, the “relative binding free energy” value is 0.11 kcal/mol. Consider TACGTCACGTGCGGGG, for which the “relative binding free energy” value is -0.02 kcal/mol.

Take GGGCCCACGTGTGGGG: the “relative binding free energy” value is -0.07 kcal/mol. As for AAGAGCACGTGGGTTG, the figure is -0.25 kcal/mol. In the case of TGGGACACGTGGTATG, the “relative binding free energy” value stood at 0.02 kcal/mol. As for GTCGGCACGTGGCTGT, the figure is -0.11 kcal/mol. Next, GGGGTCACGTGTGACT: 0.18 kcal/mol; TGATGCACGTGTAATA: 0.15 kcal/mol; TCTAACACGTGTTTTT: 0 kcal/mol. Regarding AGGGTCACGTGTATAA, the “relative binding free energy” value worked out at 0.13 kcal/mol. For TAACGCACGTGGTGAT, the “relative binding free energy” value is -0.14 kcal/mol. For AAATTCACGTGTCGGG, the “relative binding free energy” value is 0.27 kcal/mol. Regarding TTCGACACGTGGTAAG, the “relative binding free energy” value was 0.13 kcal/mol. In the case of GGGTCCACGTGTTTGT, the “relative binding free energy” value worked out at 0.07 kcal/mol. Take TTACTCACGTGGAGGT: the “relative binding free energy” value was -0.02 kcal/mol.

Consider AGAGTCACGTGGATAG, for which the “relative binding free energy” value was -0.01 kcal/mol.

For GGATGCACGTGGGGCG, the “relative binding free energy” value was -0.2 kcal/mol.

Consider GTGTTCACGTGGGTAG, for which the “relative binding free energy” value came to 0.19 kcal/mol. Next, AGTATCACGTGAGTGG: 0.32 kcal/mol; TTAGTCACGTGACGGA: 0.04 kcal/mol. As for GGTTTCACGTGATTGC, the figure is 0.52 kcal/mol; as for TTAAGCACGTGAGTCG, 0.21 kcal/mol. Next, GAGGACACGTGGGGCG: -0.06 kcal/mol; ATATTCACGTGGGTCT: 0.12 kcal/mol. As to GTTATCACGTGAGTTA, the “relative binding free energy” value worked out at 0.29 kcal/mol. Regarding TTGCACACGTGTTTTT, the “relative binding free energy” value stood at 0.12 kcal/mol.

As for TAGTGCACGTGTGATT, the “relative binding free energy” value is 0.09 kcal/mol. Turning to GTGGGCACGTGCCTGG, the “relative binding free energy” value was -0.14 kcal/mol.

Take TAGGCCACGTGCGGTG: the “relative binding free energy” value is -0.2 kcal/mol.

Take AAAGGCACGTGTGGCG: the “relative binding free energy” value turned out to be 0 kcal/mol. On to TTGGGCACGTGATGAC, for which the “relative binding free energy” value amounted to 0.1 kcal/mol. As for GCTTACACGTGGGTTT, the “relative binding free energy” value worked out at 0.13 kcal/mol.

Regarding GGTAACACGTGTGAGG, the “relative binding free energy” value was -0.01 kcal/mol. As to CTTGGCACGTGTCTTG, the “relative binding free energy” value is -0.1 kcal/mol. Turning to TCTTTCACGTGGATTT, the “relative binding free energy” value amounted to 0.28 kcal/mol. Take TTGGGCACGTGCGTAC: the “relative binding free energy” value was -0.14 kcal/mol. Consider GCGTGCACGTGAGAGG, for which the “relative binding free energy” value came to 0.17 kcal/mol. On to TTGTGCACGTGTGAGT, for which the “relative binding free energy” value is 0.11 kcal/mol. As for AGGTGCACGTGACATA, the figure is 0.23 kcal/mol; as for GGATGCACGTGATCTT, 0.23 kcal/mol; as for GGGGGCACGTGTGAAG, 0.01 kcal/mol. For the sequence TTGCACACGTGGGATT, the “relative binding free energy” value is -0.04 kcal/mol. As for GGGGGCACGTGATCAG, the “relative binding free energy” value was -0.11 kcal/mol. TGTCGCACGTGACTTT: the “relative binding free energy” value turned out to be 0.21 kcal/mol. As for AGTAGCACGTGTGTAT, the figure is -0.08 kcal/mol; as for ATGGACACGTGGTGAA, 0.06 kcal/mol. As for GTGATCACGTGTGGTA, the figure is 0.07 kcal/mol; as for AGGGGCACGTGTGGGA, -0.1 kcal/mol.

Regarding ATTTACACGTGTTGAA, the “relative binding free energy” value is 0.06 kcal/mol. In the case of TGCAGCACGTGTTTGG, the “relative binding free energy” value is -0.03 kcal/mol. As for TGTGTCACGTGCTAGC, the “relative binding free energy” value was 0.02 kcal/mol. Take ATAGTCACGTGGAATG: the “relative binding free energy” value amounted to 0.06 kcal/mol.

For the sequence TATTGCACGTGGCATT, the “relative binding free energy” value was -0.07 kcal/mol. In the case of GTGTCCACGTGAGATT, the “relative binding free energy” value turned out to be 0.34 kcal/mol.

In the case of GAAGGCACGTGTTATA, the “relative binding free energy” value is -0.03 kcal/mol. As to GGGATCACGTGTTGTG, the “relative binding free energy” value was 0.17 kcal/mol. As for AGACTCACGTGTGTTG, the figure is 0.23 kcal/mol. As to TGGTACACGTGAGGCG, the “relative binding free energy” value amounted to 0.22 kcal/mol. With TGAAACACGTGGAGGA, the “relative binding free energy” value is 0.11 kcal/mol. Regarding CGAATCACGTGGGCGG, the “relative binding free energy” value came to 0.09 kcal/mol. On to TCTTGCACGTGAAGTG, for which the “relative binding free energy” value was 0.25 kcal/mol. For GGGCACACGTGGATGT, the “relative binding free energy” value stood at 0.11 kcal/mol. On to TTGTCCACGTGTCTGT, for which the “relative binding free energy” value turned out to be 0.21 kcal/mol. For GGTAACACGTGGCGGC, the “relative binding free energy” value was -0.03 kcal/mol. For the sequence TAGAGCACGTGAGTAT, the “relative binding free energy” value came out at 0.15 kcal/mol. As to TTGGTCACGTGGGAAT, the “relative binding free energy” value worked out at 0.09 kcal/mol. For the sequence CTAAGCACGTGGTGGT, the “relative binding free energy” value is -0.08 kcal/mol. As to GTGAACACGTGGTAAT, the “relative binding free energy” value was -0.03 kcal/mol. For the sequence GGAGTCACGTGGTGGA, the “relative binding free energy” value worked out at 0.11 kcal/mol. In the case of TTCGTCACGTGGAGGG, the “relative binding free energy” value was -0.01 kcal/mol. Regarding ACTGCCACGTGTGGTG, the “relative binding free energy” value is -0.05 kcal/mol. Regarding AAGTGCACGTGTTTTC, the “relative binding free energy” value was 0.06 kcal/mol. Take GTTTTCACGTGAGTTT: the “relative binding free energy” value was 0.44 kcal/mol. Turning to GATGGCACGTGGTCGT, the “relative binding free energy” value was -0.03 kcal/mol. Take GAATGCACGTGCGTTT: the “relative binding free energy” value came to 0.09 kcal/mol.

In the case of TCTGACACGTGGGGAG, the “relative binding free energy” value was -0.1 kcal/mol. On to GGGGCCACGTGGGGCG, for which the “relative binding free energy” value was -0.21 kcal/mol.

TTCTTCACGTGTGAGT: the “relative binding free energy” value came to 0.26 kcal/mol.

As for AGTGTCACGTGGGGTA, the “relative binding free energy” value was -0.02 kcal/mol. As for AGATGCACGTGATTGT, the figure is 0.06 kcal/mol; as for TAGGACACGTGGGTTA, -0.04 kcal/mol. Take ACTGTCACGTGTATTG: the “relative binding free energy” value was 0.04 kcal/mol.

GTAATCACGTGCTTGT: the “relative binding free energy” value came to 0.21 kcal/mol. On to TGAGACACGTGGGGAC, for which the “relative binding free energy” value stood at 0 kcal/mol.

GTAATCACGTGTATTT: the “relative binding free energy” value turned out to be 0.21 kcal/mol.

For the sequence ACGGGCACGTGATGTG, the “relative binding free energy” value turned out to be 0.07 kcal/mol. Consider TAAGTCACGTGCGATG, for which the “relative binding free energy” value was 0.11 kcal/mol. On to TTTGGCACGTGTTGTA, for which the “relative binding free energy” value is -0.06 kcal/mol. Next, ACTGTCACGTGGTGTG: 0.02 kcal/mol; GATTACACGTGTGTGC: 0.25 kcal/mol.

As to TCGCTCACGTGTGGTG, the “relative binding free energy” value stood at 0.26 kcal/mol. With TGTAGCACGTGAGAGG, the “relative binding free energy” value amounted to 0.22 kcal/mol. As for TGCTTCACGTGTGTAA, the figure is 0.23 kcal/mol.

As to GGATGCACGTGGCGTG, the “relative binding free energy” value is -0.05 kcal/mol. With ATTATCACGTGCATTT, the “relative binding free energy” value worked out at 0.1 kcal/mol. Consider CAGATCACGTGGGAGG, for which the “relative binding free energy” value was 0.05 kcal/mol. For GGGATCACGTGTATTA, the “relative binding free energy” value came out at 0.05 kcal/mol. ATTATCACGTGAGGTA: the “relative binding free energy” value was 0.31 kcal/mol.

For TTTATCACGTGTATGT, the “relative binding free energy” value was determined as 0.15 kcal/mol. As for AGGAGCACGTGGGAGG, the figure is -0.28 kcal/mol; as for GTCATCACGTGGCAGG, 0.21 kcal/mol. Next, TTAGGCACGTGTTCGA: -0.21 kcal/mol; TTAAGCACGTGGAGGG: -0.15 kcal/mol; TCGTTCACGTGACGTG: 0.24 kcal/mol. GAGAGCACGTGTGTAG: the “relative binding free energy” value is -0.12 kcal/mol.

As to GGGCTCACGTGAGGGA, the “relative binding free energy” value stood at 0.51 kcal/mol. Next, GTTGTCACGTGACGCG: 0.22 kcal/mol; GTAGACACGTGTCGGG: -0.02 kcal/mol; GTTAGCACGTGATTAG: 0.02 kcal/mol. GCGGTCACGTGTTGGG: the “relative binding free energy” value amounted to 0.17 kcal/mol. Regarding GTTTGCACGTGTTGCC, the “relative binding free energy” value came out at 0.04 kcal/mol. Turning to TAGGTCACGTGGTGAA, the “relative binding free energy” value came out at 0.02 kcal/mol. For the sequence TCATCCACGTGGGTGT, the “relative binding free energy” value was -0.15 kcal/mol. For the sequence CTGGTCACGTGTGGAA, the “relative binding free energy” value was determined as 0.12 kcal/mol.

On to AGGGACACGTGTGGTT, for which the “relative binding free energy” value amounted to 0.1 kcal/mol. Next, GTGAGCACGTGGACGG: -0.13 kcal/mol; ATAGTCACGTGCGGTC: 0.24 kcal/mol; TTGTGCACGTGGCCGA: -0.1 kcal/mol.
